From the supplement of paper PMC4967469
IC50 is the fitted dose that halves viability relative to control wells, and lower means more sensitive; a limit (>, <) means that the fit lies beyond the doses tested. AUC is the area under the same curve over the 256-fold range up to the top dose, as a fraction; it is 1 without any effect and falls as sensitivity rises. An inferred top dose was calculated from the reported fits.

Compound: CCn1cc(-c2ccnc3[nH]c(-c4cccc(CN(C)C)c4)cc23)c(-c2ccc(NC(=O)N(C)C)cc2)n1 [GSK1070916]
Experiment: Viability of human cancer cell lines after 72 h of drug (GDSC screen)
Conditions: top dose inferred
Experimental: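 Human cancer cell lines in 384-well plates, medium with 10% serum, drug for 72 h over a 256-fold dose range (nine 2-fold or five 4-fold steps up to the top dose). Adherent lines were fixed and stained with the nucleic acid dye Syto60, suspension lines read with resazurin; signal relative to control wells, capped at 0 and 100%. One two-parameter sigmoid per drug and line, fitted in a mixed model over all curves with the slope shared within a line.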

Row | Cell Line | AUC | IC50 [µM]
1 | H3255 (lung adenocarcinoma, adherent, top dose 2.56 µM) | 0.944 | > 2.56
2 | H-EMC-SS (chondrosarcoma, adherent, top dose 2.56 µM) | 0.813 | 1.93
3 | HA7-RCC (kidney, adherent, top dose 2.56 µM) | 0.961 | > 2.56
4 | HAL-01 (lymphoblastic leukaemia, suspension, top dose 2.56 µM) | 0.788 | 0.982
5 | HARA (lung squamous cell carcinoma, adherent, top dose 2.56 µM) | 0.75 | 0.957
6 | HC-1 (hairy cell leukaemia, suspension, top dose 2.56 µM) | 0.838 | 1.64
7 | HCC38 (breast, adherent, top dose 2.56 µM) | 0.952 | > 2.56
8 | HCC70 (breast, adherent, top dose 2.56 µM) | 0.962 | > 2.56
9 | HCC202 (breast, adherent, top dose 2.56 µM) | 0.917 | > 2.56
10 | HCC1143 (breast, adherent, top dose 2.56 µM) | 0.922 | > 2.56
11 | HCC1187 (breast, suspension, top dose 2.56 µM) | 0.219 | 0.0254
12 | HCC1395 (breast, adherent, top dose 2.56 µM) | 0.962 | > 2.56
13 | HCC1419 (breast, adherent, top dose 2.56 µM) | 0.968 | > 2.56
14 | HCC1428 (breast, adherent, top dose 2.56 µM) | 0.985 | > 2.56
15 | HCC1500 (breast, adherent, top dose 10.24 µM) | 0.947 | > 10.2
16 | HCC1569 (breast, adherent, top dose 2.56 µM) | 0.846 | > 2.56
17 | HCC1599 (breast, suspension, top dose 2.56 µM) | 0.445 | 0.111
18 | HCC1806 (breast, adherent, top dose 2.56 µM) | 0.986 | > 2.56
19 | HCC1937 (breast, adherent, top dose 2.56 µM) | 0.952 | > 2.56
20 | HCC1954 (breast, adherent, top dose 2.56 µM) | 0.957 | > 2.56
21 | HCC2157 (breast, suspension, top dose 2.56 µM) | 0.967 | > 2.56

Row | Cell Line | AUC | IC50 [µM]
22 | HCC2218 (breast, suspension, top dose 2.56 µM) | 0.98 | > 2.56
23 | HCC2998 (large intestine, adherent, top dose 2.56 µM) | 0.98 | > 2.56
24 | HCC-15 (lung squamous cell carcinoma, adherent, top dose 2.56 µM) | 0.945 | > 2.56
25 | HCC-33 (small cell lung carcinoma, adherent, top dose 2.56 µM) | 0.818 | 1.46
26 | HCC-44 (lung adenocarcinoma, adherent, top dose 2.56 µM) | 0.903 | > 2.56
27 | HCC-56 (large intestine, adherent, top dose 2.56 µM) | 0.753 | 0.874
28 | HCC-78 (lung adenocarcinoma, adherent, top dose 2.56 µM) | 0.86 | > 2.56
29 | HCC-827 (lung adenocarcinoma, adherent, top dose 2.56 µM) | 0.974 | > 2.56
30 | HCE-4 (oesophagus, adherent, top dose 2.56 µM) | 0.99 | > 2.56
31 | HCT-15 (large intestine, adherent, top dose 2.56 µM) | 0.971 | > 2.56
32 | HD-MY-Z (Hodgkin lymphoma, adherent, top dose 2.56 µM) | 0.862 | 2.21
33 | HDLM-2 (Hodgkin lymphoma, suspension, top dose 2.56 µM) | 0.888 | > 2.56
34 | HDQ-P1 (breast, adherent, top dose 2.56 µM) | 0.962 | > 2.56
35 | HEC-1 (endometrium, adherent, top dose 2.56 µM) | 0.989 | > 2.56
36 | HEL (acute myeloid leukaemia, semi-adherent, top dose 2.56 µM) | 0.895 | 2.18
37 | HH (T-cell leukaemia, suspension, top dose 2.56 µM) | 0.706 | 0.75
38 | HL-60 (acute myeloid leukaemia, suspension, top dose 2.56 µM) | 0.359 | 0.0683
39 | HLE (liver, adherent, top dose 2.56 µM) | 0.955 | > 2.56
40 | HMV-II (melanoma, adherent, top dose 2.56 µM) | 0.951 | > 2.56
41 | HN (head and neck, adherent, top dose 2.56 µM) | 0.983 | > 2.56
42 | HO-1-u-1 (head and neck, adherent, top dose 2.56 µM) | 0.984 | > 2.56

Row | Cell Line | AUC | IC50 [µM]
43 | HOP-62 (lung adenocarcinoma, adherent, top dose 2.56 µM) | 0.917 | > 2.56
44 | HOP-92 (large cell lung carcinoma, adherent, top dose 2.56 µM) | 0.982 | > 2.56
45 | HOS (osteosarcoma, adherent, top dose 2.56 µM) | 0.992 | > 2.56
46 | HPAC (pancreas, adherent, top dose 2.56 µM) | 0.799 | 1.86
47 | HPAF-II (pancreas, adherent, top dose 2.56 µM) | 0.948 | > 2.56
48 | HSC-2 (head and neck, adherent, top dose 2.56 µM) | 0.988 | > 2.56
49 | HSC-3 (head and neck, adherent, top dose 2.56 µM) | 0.99 | > 2.56
50 | HSC-4 (head and neck, adherent, top dose 2.56 µM) | 0.972 | > 2.56
51 | HSC-39 (stomach, suspension, top dose 2.56 µM) | 0.588 | 0.268
52 | HT55 (large intestine, adherent, top dose 2.56 µM) | 0.99 | > 2.56
53 | HT (B-cell lymphoma, suspension, top dose 2.56 µM) | 0.988 | > 2.56
54 | HT-3 (cervix, adherent, top dose 2.56 µM) | 0.982 | > 2.56
55 | HT-29 (large intestine, adherent, top dose 2.56 µM) | 0.963 | > 2.56
56 | HT-115 (large intestine, adherent, top dose 2.56 µM) | 0.982 | > 2.56
57 | HT-144 (melanoma, adherent, top dose 2.56 µM) | 0.977 | > 2.56
58 | HT-1080 (fibrosarcoma, adherent, top dose 2.56 µM) | 0.958 | > 2.56
59 | HT-1197 (bladder, adherent, top dose 2.56 µM) | 0.983 | > 2.56
60 | HT-1376 (bladder, adherent, top dose 2.56 µM) | 0.985 | > 2.56
61 | HTC-C3 (thyroid, adherent, top dose 2.56 µM) | 0.954 | > 2.56
62 | HUTU-80 (digestive system, adherent, top dose 2.56 µM) | 0.084 | < 0.01
63 | Hep 3B2_1-7 (liver, adherent, top dose 2.56 µM) | 0.978 | > 2.56

Row | Cell Line | AUC | IC50 [µM]
64 | Hey (ovary, adherent, top dose 2.56 µM) | 0.928 | > 2.56
65 | Hs633T (fibrosarcoma, adherent, top dose 2.56 µM) | 0.969 | > 2.56
66 | Hs683 (glioma, adherent, top dose 2.56 µM) | 0.9 | > 2.56
67 | Hs746T (stomach, adherent, top dose 2.56 µM) | 0.915 | > 2.56
68 | Hs766T (pancreas, adherent, top dose 2.56 µM) | 0.984 | > 2.56
69 | Hs939-T (melanoma, adherent, top dose 2.56 µM) | 0.986 | > 2.56
70 | Hs940-T (melanoma, adherent, top dose 2.56 µM) | 0.964 | > 2.56
71 | Hs-445 (Hodgkin lymphoma, suspension, top dose 2.56 µM) | 0.856 | 1.82
72 | Hs-578-T (breast, adherent, top dose 2.56 µM) | 0.987 | > 2.56
73 | HuCCT1 (biliary tract, adherent, top dose 2.56 µM) | 0.94 | > 2.56
74 | HuH-7 (liver, adherent, top dose 2.56 µM) | 0.98 | > 2.56
75 | HuO9 (osteosarcoma, adherent, top dose 2.56 µM) | 0.932 | > 2.56
76 | HuO-3N1 (osteosarcoma, adherent, top dose 2.56 µM) | 0.955 | > 2.56
77 | HuP-T3 (pancreas, adherent, top dose 2.56 µM) | 0.922 | > 2.56
78 | HuP-T4 (pancreas, adherent, top dose 2.56 µM) | 0.877 | > 2.56
79 | IA-LM (large cell lung carcinoma, adherent, top dose 2.56 µM) | 0.969 | > 2.56
80 | IGR-1 (melanoma, adherent, top dose 2.56 µM) | 0.903 | > 2.56
81 | IGR-37 (melanoma, adherent, top dose 2.56 µM) | 0.986 | > 2.56
